Measurements as given in PubChem BioAssay AID485294 (National Center for Advancing Translational Sciences (NCATS), 2010).
About 150 (0.041%) of roughly 370,000 compounds were called active. The shares of active, inactive and inconclusive entries below differ from those in the screen. Calls come from the whole dose curve; as a rule, active = well fitted inhibition curve with a large enough effect; inconclusive = small, poorly fitted or top-dose-only effect; inactive = flat fitted curve, though single readings scatter. Potencies of inconclusive entries are left out as doubtful fits.
Note: nearly all actives have a fitted effect of over 25% in size.
Potency is the fitted concentration of half-maximal effect; tags give direction and shape of the fitted curve.

Each molecule was assayed against Beta-lactamase (Escherichia coli (strain K12)) (UniProt P00811) (assay: qHTS Inhibitors of AmpC Beta-Lactamase (assay with detergent)). Conditions: AmpC hydrolysis of nitrocefin, absorbance 480 nm, 0.01% Triton; series mostly up to 114 µM.
Chain of UniProt P00811 (P00811 whole entry, looked up): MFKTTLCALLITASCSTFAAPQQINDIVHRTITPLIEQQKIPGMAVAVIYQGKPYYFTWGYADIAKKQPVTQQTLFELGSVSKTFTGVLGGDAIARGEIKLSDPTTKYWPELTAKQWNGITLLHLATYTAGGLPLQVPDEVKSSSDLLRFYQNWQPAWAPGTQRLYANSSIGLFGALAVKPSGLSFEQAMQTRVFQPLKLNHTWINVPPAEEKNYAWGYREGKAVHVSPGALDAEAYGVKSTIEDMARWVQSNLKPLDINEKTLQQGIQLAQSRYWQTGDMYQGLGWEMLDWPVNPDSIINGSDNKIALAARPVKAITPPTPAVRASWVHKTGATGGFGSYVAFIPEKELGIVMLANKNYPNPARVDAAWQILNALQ
In short: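 AmpC (5.3 nM in the dispensed reagent) in 20 mM phosphate pH 7.0 with 0.01% (detergent screen) or 0.0001% Triton X-100 was preincubated with compounds for 15 min at room temperature. Nitrocefin was then added from an 800 uM solution, and hydrolysis was followed at 480 nm.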
`CC(C(=O)O)N(c1ccccc1Cl)S(C)(=O)=O` (centres undefined) was tested, and the Potency was “inactive”.
With `Cc1ccc(-n2cnc3cc(C(=O)NC4CCCCCC4)ccc32)cc1Cl` the Potency was “inactive”.
In the case of `COc1ccc(-c2cc(C(=O)NC3CCCCC3)no2)cc1OC`, the Potency is reported as inconclusive [inhibitor, partial curve, poor fit].
For `COc1cc(/C=C/C(=O)NCC(=O)N2CCC(N(C)CCN3CCOCC3)CC2)ccc1OC(C)C`, the Potency was inconclusive [inhibitor, single point].
`O=C(CSc1nc2c(c(=O)n1-c1ccc(F)cc1)SCC2)NCC1CCCO1` (centres undefined) was tested, and the Potency was inconclusive [inhibitor, full curve].
`C=CCn1cc(C(=O)N2CCN(C)CC2)c(=O)c2cc(S(=O)(=O)N3CCCC3)ccc21` was tested, and the Potency was inconclusive [inhibitor, full curve, poor fit].
In the case of `O=C(NCc1ccccc1)NC1CC2CCC(C1)N2Cc1ccco1` (centres undefined), the Potency is reported as “inactive”.
`NS(=O)(=O)c1cnccc1Nc1ccc(Cl)c(Cl)c1` was tested, and the Potency was inconclusive [inhibitor, partial curve].
In the case of `Cc1ccc(CC(=O)Nc2ccc(F)c([N+](=O)[O-])c2)cc1C`, the Potency is reported as inconclusive [inhibitor, single point].
For `COc1ccc(NC(=O)C2(S(=O)(=O)c3ccc(C)cc3)CC2)cc1OC`, the Potency was inconclusive [inhibitor, full curve].
For `COc1ccc(C2CC(=O)C=C(NCC3CCCO3)C2)cc1` (centres undefined), the Potency was inconclusive [inhibitor, single point].
`O=[N+]([O-])c1ccc(NC(=S)NCc2ccc(F)cc2)cc1` was tested, and the Potency was “inactive”.
For `CCOC(=O)CSc1ccc2nnc(-c3cccnc3)n2n1`, the Potency was inconclusive [inhibitor, full curve].
For `CCN(CC)S(=O)(=O)c1ccc2oc(SCC3CN=C(c4ccc(OC)cc4)S3)nc2c1` (centres undefined), the Potency was inconclusive [inhibitor, full curve, poor fit].
With `COc1cccc(NC(=O)c2cccc(S(=O)(=O)N3CCN(Cc4ccccc4)CC3)c2)c1` the Potency was inconclusive [inhibitor, partial curve, poor fit].
In the case of `CCC1=C(c2ccc(C)cc2)S(=O)(=O)N=C1N1CCC(C(=O)N2CCCCC2)CC1`, the Potency is reported as “inactive”.
For `COc1ccccc1NC(=O)Cn1c(=O)n(Cc2nc(-c3ccccc3)no2)c(=O)c2ccccc21`, the Potency was “inactive”.
With `CCOc1ccc(S(=O)(=O)N2CCN(c3ccccc3OC)CC2)c2cccnc12` the Potency was inconclusive [inhibitor, single point].
For `CCOC(=O)N1CCN(Cc2ccc(OCC(O)CN3CCCCC3)cc2)CC1` (centres undefined), the Potency was inconclusive [inhibitor, full curve, poor fit].
